We go through 22 molecules from paper PMC12136788.

The chains are these.
T1: UNK ZnF1-3 (human, UniProt Q9C0B0 31-174)
T1 sequence: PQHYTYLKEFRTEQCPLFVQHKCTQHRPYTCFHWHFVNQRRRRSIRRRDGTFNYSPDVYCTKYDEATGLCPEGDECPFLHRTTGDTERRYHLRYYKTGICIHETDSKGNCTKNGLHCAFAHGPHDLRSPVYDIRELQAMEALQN

B1: chr12:16048344:16048345:+_ENSG00000023734_ENST00000419869|hu_hu|hu_hu_hu_mus_True|58_58 (ssRNA)
RNA: GGGAGUUCUACAGUCCGACGAUCAGAUCGUCCAUAAGUAAUAACCAAAAUCUCUCCUUCAGGAAUAUACUCCAUGCUACUAACAGACAUAUUAAAAUUCAGAGAUUUCACUUCUGUCAUUGUGGCAUGAUCCCAGAGCCGAACCAACAGAGGAUUGAGCAUCA
B2: chr11:46405157:46405158:+_ENSG00000110492_ENST00000395566|hu_hu|hu_hu_hu_mus_False|88_108 (ssRNA)
RNA: GGGAGUUCUACAGUCCGACGAUCCCCUUAGGGGUGGGGGCACUUGGUGAGAGGGACAGAGGACAGGCGUGAUUGACAGAGCUGACAGGAAGACAAAAGGCACUGGUGGGUUAUAUCUUGGGCCUGUGGGAGAGGAGGGCUCCGCAACAGAGGAUUGAGCAUCA
B3: chr17:45705486:45705487:-_ENSMUSG00000023944_ENSMUST00000024739|mus_mus|FALSE|FALSE (ssRNA)
RNA: GGGAGUUCUACAGUCCGACGAUCGUUGGCUGUCCAGCCAUAGGUGCUUGUCACAAUGCAGCAGGGUGAAGACACAAGCCUAUUGGAGAUUGUCACCUUUUCAACCUUCUUGUCCAAGAUCUCCUUCAUGAGCUUGCAGAGAUUCAACAGAGGAUUGAGCAUCA
B4: chr3:179287964:179287965:+_ENSG00000136518_ENST00000429709|hu_hu|hu_hu_hu_mus_True|78_88 (ssRNA)
RNA: GGGAGUUCUACAGUCCGACGAUCCUUGAGUGGUGAGAUGGCCUCCAUAUUCUCCCUCGGAACACGCAGGGCAUUGGUGUCUAUGUAGUAGGUGGGCCCGCCCUGCUUGCCUUUGUCACCAUCAAUCUCCAUCAUUGUACUUCCCAACAGAGGAUUGAGCAUCA
B5: 2235456_2235766_1521_CDS_ENSG00000157933_ENST00000378536|human|control|control (ssRNA)
RNA: GGGAGUUCUACAGUCCGACGAUCGGACGGGGAAGAGAGCGAGGACAAGGAGGAGGUGAAUUCCUCCCUGCUUUCAACUUCCACCUCCGCCUCCGAGUCCUUGUCCUCCUCUGGGGCAGCCACGGGCGCCAGCGUCUCUGGGGCCAACAGAGGAUUGAGCAUCA
B6: chr12:96407613:96407614:-_ENSG00000111144_ENST00000228740|hu_hu|FALSE|FALSE (ssRNA)
RNA: GGGAGUUCUACAGUCCGACGAUCCUUCCAGUCAUCAGUAGUUAUGCUCUUAUAGGAAAACUUCUCAACAUAAGCUUUUAAGAAUCCUAGGAAAAUCUCUGGUCCUCCAAGCAGUUGUUCAAGGUAAAAAAGUAAAGCAAAGCCCAACAGAGGAUUGAGCAUCA
B7: chrX:91780989:91780990:-_ENSMUSG00000025151_ENSMUST00000026142|mus_hu|motif|central (ssRNA)
RNA: GGGAGUUCUACAGUCCGACGAUCCUCUAGAUAGCUGUGUUUAGAAGGAAUCUGAGGCUUCAGCCUCACACAGGGGAAAGACGGCUGCGAUUGAUAGCAAUAUCCAACAUCUCACUCAACCCAGAAGAAACCAAUGGCACCAAACAACAGAGGAUUGAGCAUCA
B8: chr1:174017691:174017692:+_ENSMUSG00000026553_ENSMUST00000135192|mus_mus|FALSE|FALSE (ssRNA)
RNA: GGGAGUUCUACAGUCCGACGAUCAACUGGAUGACCCCAUUGUGUAAACUGGUCAGGAUCCAGGGUCUUUUAGGAUGAAAACUAAGGCCUUUGACCCGCGCGCUCUUCGUCUCGAAUUUGGUUAGCAUCCUUCAGGCCUCGGGCCAACAGAGGAUUGAGCAUCA
B9: chr10:61005495:61005496:+_ENSG00000165443_ENST00000486074|hu_hu|motif|central (ssRNA)
RNA: GGGAGUUCUACAGUCCGACGAUCAACUUAGGGUAUUUCAUCAUUGAAAGUAGUGGGAGGGGUAGGGAAUAGGAAAACACGGAAAUGGUUCUGAAUGAAAUUUGGAAAGUGGUAGUUGUUUGUUUUGGUGACAGUGGCAUGUGCCAACAGAGGAUUGAGCAUCA
B10: chr7:75932113:75932114:+_ENSG00000106211_ENST00000248553|hu_hu|hu_hu_hu_mus_False|1_18 (ssRNA)
RNA: GGGAGUUCUACAGUCCGACGAUCCUGCGACCACUCAUCGGGCAACCGGGGCACCCCGAAAGCUUGAUCGAAGAGGCGGCUGUGUGCAGGGUACCAGUCCCGGAAUGGUUCCCAGCUGCCCCGCAGGAGCAGCGAGAGGACGCGCAACAGAGGAUUGAGCAUCA
B11: chr11:94923035:94923036:-_ENSG00000149212_ENST00000536441|hu_mus|FALSE|FALSE (ssRNA)
RNA: GGGAGUUCUACAGUCCGACGAUCUCCAGUUUUGACAAGUUUCUGAAUGUGCUCUUUUGUGAUCAGCCAGGGCCGGUGUGCCAGCAGCUUGUUAAUUUCAUUAAGAUUUCUCAGUCUUUGUGGUACAUAUUCCAAGCCAUUCAGCAACAGAGGAUUGAGCAUCA
B12: chr5:171327072:171327073:-_ENSG00000072803_ENST00000265094|hu_hu|motif|central (ssRNA)
RNA: GGGAGUUCUACAGUCCGACGAUCUACCAGCUCUGCUGCACACAGAGACCUGGCAUCCAGGUACGAAAGAAUGUUUUCUGCGGUGUGAUCUAAGCCUUGCUCUGGUAAAGCGGUAAUAAAGUCCCGCUGCAACAUGGGCUUCAGCAACAGAGGAUUGAGCAUCA
B13: chr16:37881740:37881741:+_ENSMUSG00000034158_ENSMUST00000078717|mus_mus|FALSE|FALSE (ssRNA)
RNA: GGGAGUUCUACAGUCCGACGAUCAGACCGAUCAACUGAAUUUUGAACUGCCAUUCACAAUAAAUUACACUCAAAGAAUCUAAACAGGGAACUGGACUCAUUCCUGCCGAAUGUGUAGACAGAAUGCAAAACCUUUCUUUCACACAACAGAGGAUUGAGCAUCA
B14: chr1:46159212:46159213:+_ENSG00000159596_ENST00000372025|hu_mus|FALSE|FALSE (ssRNA)
RNA: GGGAGUUCUACAGUCCGACGAUCUCUGAUCCCUCCCAAGAAAGCUAGGAAACCGGCUCCAUAAGCCAUCUGAGUGAAAGCUAGGACGGGGAUAUAAGACUUUGUUAUUACCAUGAGAAGUGGGGGAGCAGUAAAGGGGAUUAACAACAGAGGAUUGAGCAUCA
B15: 68524799_68524919_2729_3pUTR_ENSG00000110090_ENST00000265641|human|control|control (ssRNA)
RNA: GGGAGUUCUACAGUCCGACGAUCCCACAACCCUACUAAUUCCUUCAUUAACUCAACAAGAUUUGCAUCCCUUAAUAAAUCCAAGCCGAUGCGGAGACAUCAGGGGAGACUUUAUCAGAUGUCCCCCAAGGGAGGGCAAGUCUGCAACAGAGGAUUGAGCAUCA
B16: 10576428_10576548_1610_3pUTR_ENSMUSG00000024668_ENSMUST00000025570|mouse|control|control (ssRNA)
RNA: GGGAGUUCUACAGUCCGACGAUCUGUGAGGUAACUGAUGCUGAUUCCCGCUUCCCUCCCUGGCCAGGGAACUUUUUCCUAUAGCUCUUGUAGUUACCCACCCAGGCUUCUCAGUUCUGGCCUGCUUUCUCUAGCCAACACUCACAACAGAGGAUUGAGCAUCA
B17: chr4:17845017:17845018:+_ENSG00000109805_ENST00000514176|hu_mus|hu_hu_hu_mus_False|98_98 (ssRNA)
RNA: GGGAGUUCUACAGUCCGACGAUCGCUCUCUUAACUUGAUCUUCAUUUAAGGAACUCUGCAAGGUUAAGUUUACUUUUCUGUAGCGCAGCUGUUUUGGCUCGUCUGGGUAAUCUCAUCUUCAUUUCUGAUGGUGGUUCAUGAUCCAACAGAGGAUUGAGCAUCA
B18: chr3:108421708:108421709:+_ENSMUSG00000040389_ENSMUST00000051145|mus_hu|motif|central (ssRNA)
RNA: GGGAGUUCUACAGUCCGACGAUCGCCAAGAAGCACUUCGCUUUCUGUAAUUUCUUCUCCAGUUGCUUUACUCUGACAAAAUUCGGCACAGCAUUCAUAAAGCAGGCCUUUCAUUACAAGCUGAAAUAAACGAUUGUUACUAGCCAACAGAGGAUUGAGCAUCA
B19: chr15:30001172:30001173:-_ENSG00000104067_ENST00000400011|hu_mus|FALSE|FALSE (ssRNA)
RNA: GGGAGUUCUACAGUCCGACGAUCUGGUGGUCUGAAAGUUGCUGGUUUACUCUGAGAUGGGGGUGGGUCUGGUUUGGACAUAUAUGAGUUCUGAAAAUCCAAUGAUACUGAGUUGCCUUCACCCUGGGCGCCCUUGGAAUGUAUCAACAGAGGAUUGAGCAUCA
B20: chr15:43486971:43486972:+_ENSG00000166946_ENST00000300213|hu_mus|FALSE|FALSE (ssRNA)
RNA: GGGAGUUCUACAGUCCGACGAUCGAGCGCCUUAAUUCUGUUCAUGCAAUGGUCAACGGCAUUAAUGAGUAAAGGAAUCCAGCUAUCUCCUGGGUGGGGGCUCACGUGACUUGCUUUUGUAAUUUCAAGAGCCUUUAUUAAAACCAACAGAGGAUUGAGCAUCA
B21: chr5:21252845:21252846:+_ENSMUSG00000029017_ENSMUST00000030882|mus_hu|FALSE|FALSE (ssRNA)
RNA: GGGAGUUCUACAGUCCGACGAUCUGUUUGCAACCAUGAGACAGAUUGUAUCUGGAUGUGCCCAACCAACAGCUUCAACAGCUAUUGCAAGGUGCGCCAAAGGCAUCUUGUCAUCCCUCACACGAAUCUCACUUCCUGUGAAUUCAACAGAGGAUUGAGCAUCA
B22: chr4:144460044:144460045:+_ENSG00000153147_ENST00000283131|hu_mus|hu_hu_hu_mus_False|28_98 (ssRNA)
RNA: GGGAGUUCUACAGUCCGACGAUCACGGUCCAUAGCCUGAAGAUCUACUUGCGGAUUCCAAUCUGAGUCAUAUAAAAUGACUACAUCAGCAGUUGCAAGAUUGAUGCCAAGACCACCAGCACGUGUGCUUAGCAUAAAUACAAACAACAGAGGAUUGAGCAUCA

This is one part of the list.

This assay concerns the target T1, UNK ZnF1-3. Put plainly: nsRBNS (natural sequence RNA bind-n-seq); RBNS binding buffer (assumed for nsRBNS): 25 mM Tris pH 7.5, 150 mM KCl, 3 mM MgCl2, 0.01% Triton X-100, 500 ug/ml BSA, 20 U/ml SUPERase-In, 4 C; UNK is unkempt and MSI1 is Musashi-1; names of the RNAs are library labels; protein concentration not given here; high values mean tight binding.
In the case of B1, the binding signal stood at 1.02 enrichment R.
The molecule B2 came in with a binding signal of 2.53 enrichment R.
B3 returned a binding signal of 1.12 enrichment R.
Molecule B4 yielded a binding signal of 0.577 enrichment R.
In the case of B5, the binding signal worked out at 0.644 enrichment R.
The molecule B6 returned a binding signal of 1.42 enrichment R.
As for B7, the binding signal amounted to 1.35 enrichment R.
On to B8, for which the binding signal is 0.939 enrichment R.
Molecule B9 showed a binding signal of 1.93 enrichment R.
As to B10, the binding signal was 0.969 enrichment R.
B11 registered a binding signal of 0.827 enrichment R.
As for B12, the binding signal was 0.868 enrichment R.
To B13 belongs 1.06 enrichment R; to B14, 1.53 enrichment R.
For B15, the binding signal stood at 1.46 enrichment R.
To B16 belongs 0.713 enrichment R; to B17, 0.419 enrichment R; to B18, 1.11 enrichment R.
With B19, the binding signal came out at 0.981 enrichment R.
For B20 the value was 1.47 enrichment R; for B21, 0.644 enrichment R.
The molecule B22 gave a binding signal of 0.843 enrichment R.
